Results published in a collection of fitness landscapes (doi:10.1016/j.celrep.2020.107928).
The full ranking holds about 81,000 sequences; the median of “one-hybrid fitness for binding parS DNA” is about -0.17, and the highest 2% start at about 0.51. The list shows a part of the results.

B1: Caulobacter ParB omega fusion; a variant is named by its letters at X, in order, B8GW30 (parent)
chain: MESVVVGEPGMSEGRRGLGRGLSALLGEVDAAPAQAPGEQLGGSREAPIEILQRNPDQPRRTFREEDLEDLSNSIREKGVLQPILVRPSPDTAGEYQIVAGERAWRAAQRAGLKTVPIMVRELDDLAVLEIGIIENVQRADLNVLEEALSYKVLMEKFERTQENIAQTIGKSXSHVANXMRLLXLPDEVQSYLVSGELTAXHARAIAAAADPVALAKQIIEGGLSVRETEALARKAPNLSAGKSKGGRPPRVKDTDTQALESDLSSVLGLDVSIDHRGSTGTLTITYATLEQLDDLCNRLTRGI

Variants of: B1
Test: one-hybrid fitness for binding parS DNA (scaled: cognate 1, non-cognate 0); higher = stronger binding
Settings: with parS DNA site
In short: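 In E. coli USO, a HIS3 reporter with its site placed 19 bp from the promoter was used to select Caulobacter ParB variants randomised at four specificity codons. Growth lasted 48 hours at 37°C on histidine-free M9 containing 0.1 mM IPTG and 5 mM 3-AT. Fitness was taken as the log change in variant-to-wild-type read ratio from Illumina sequencing of pre- and post-selection plasmids, rescaled between the non-cognate and cognate sites.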

Variant | one-hybrid fitness for binding parS DNA
ANSH | ≤ 0.2
GASR | ≤ 0.2
CISL | ≤ 0.2
TYVC | ≤ 0.2
TKKQ | ≤ 0.2
PNPC | ≤ 0.2
WAKG | ≤ 0.2
LCSA | ≤ 0.2
RAKR | ≤ 0.2
QICV | ≤ 0.2
WYQS | ≤ 0.2
SVKL | ≤ 0.2
QCNT | ≤ 0.2
GMDG | ≤ 0.2
TSQD | ≤ 0.2
PDSE | ≤ 0.2
ARID | ≤ 0.2
YHKS | ≤ 0.2
AAVD | ≤ 0.2
QTNY | ≤ 0.2
HGLS | ≤ 0.2
QVTC | ≤ 0.2
TTTN | ≤ 0.2
LEEC | ≤ 0.2

Variant | one-hybrid fitness for binding parS DNA
EKTT | ≤ 0.2
MYLM | ≤ 0.2
LKEV | ≤ 0.2
AWRT | ≤ 0.2
WQFG | ≤ 0.2
MNSY | ≤ 0.2
AKYF | 0.206
MRDL | ≤ 0.2
AGKS | ≤ 0.2
QTMV | ≤ 0.2
IHTM | ≤ 0.2
NPTM | ≤ 0.2
CEWG | ≤ 0.2
ISAL | ≤ 0.2
TCML | ≤ 0.2
NRAV | ≤ 0.2
KTGE | ≤ 0.2
WWDC | ≤ 0.2
MTVC | ≤ 0.2
SDNT | ≤ 0.2
VTFR | ≤ 0.2
LFHG | ≤ 0.2
WDNT | ≤ 0.2
EHST | ≤ 0.2

Variant | one-hybrid fitness for binding parS DNA
LHKV | ≤ 0.2
RYLS | 0.986
DDMR | ≤ 0.2
YDEG | ≤ 0.2
DYRI | ≤ 0.2
VKMN | ≤ 0.2
GGKL | ≤ 0.2
QRCL | ≤ 0.2
MLQF | ≤ 0.2
QGCR | ≤ 0.2
RQCG | 0.97
KRSQ | ≤ 0.2
ALDM | ≤ 0.2
SSEE | ≤ 0.2
WIKS | ≤ 0.2
ALGA | ≤ 0.2
STWC | ≤ 0.2
AIVS | ≤ 0.2
DASW | ≤ 0.2
RSIS | 0.887
NHGR | ≤ 0.2
STRQ | ≤ 0.2
GLVC | ≤ 0.2
SYKL | ≤ 0.2

Variant | one-hybrid fitness for binding parS DNA
SETF | ≤ 0.2
TMAC | ≤ 0.2
PVVW | ≤ 0.2
PSRG | ≤ 0.2
KAVK | ≤ 0.2
NVDR | ≤ 0.2
VFTR | ≤ 0.2
RHCW | ≤ 0.2
ERNM | ≤ 0.2
FGNT | ≤ 0.2
RAPK | ≤ 0.2
VWTS | ≤ 0.2
VVSC | ≤ 0.2
NHFT | ≤ 0.2
AQAL | ≤ 0.2
WRDF | ≤ 0.2
YLEG | ≤ 0.2
ALPM | ≤ 0.2
NEAP | ≤ 0.2
QGYV | ≤ 0.2
QYCT | ≤ 0.2
HGER | ≤ 0.2
HSLD | ≤ 0.2
LMWL | ≤ 0.2

Variant | one-hybrid fitness for binding parS DNA
WRVS | ≤ 0.2
GTGR | ≤ 0.2
SLNS | ≤ 0.2
AAHH | ≤ 0.2
CNYR | ≤ 0.2
TLFA | ≤ 0.2
MRAT | ≤ 0.2
PMQC | ≤ 0.2
LWMR | ≤ 0.2
GLSK | ≤ 0.2
TSCI | ≤ 0.2
EAHG | ≤ 0.2
ANVV | ≤ 0.2
DDRC | ≤ 0.2
CELS | ≤ 0.2
YKTC | ≤ 0.2
CLDW | ≤ 0.2
VSDI | ≤ 0.2
PNLA | ≤ 0.2
QMMS | ≤ 0.2
CYVC | ≤ 0.2
PHYK | ≤ 0.2
WTSR | ≤ 0.2
VLQT | ≤ 0.2

Variant | one-hybrid fitness for binding parS DNA
DWSL | ≤ 0.2
TSAI | ≤ 0.2
PPCY | ≤ 0.2
NDIR | ≤ 0.2
KQKL | ≤ 0.2
IGEG | ≤ 0.2
ILMR | ≤ 0.2
VECR | ≤ 0.2
HCRA | ≤ 0.2
NQYS | ≤ 0.2
ACAM | ≤ 0.2
GMRS | ≤ 0.2
QYTG | ≤ 0.2
NLGG | ≤ 0.2
WLKD | ≤ 0.2
PNQF | ≤ 0.2
VFAR | ≤ 0.2
YLVG | ≤ 0.2
YVQT | ≤ 0.2
YIPY | ≤ 0.2
TWAS | ≤ 0.2
RDHN | ≤ 0.2
VIVY | ≤ 0.2
VLGF | ≤ 0.2

Variant | one-hybrid fitness for binding parS DNA
QERM | ≤ 0.2
APIF | ≤ 0.2
DGAS | ≤ 0.2
DMTI | ≤ 0.2
HAIC | ≤ 0.2
FKRW | ≤ 0.2
AFSF | ≤ 0.2
EYPR | ≤ 0.2
PNIG | ≤ 0.2
LEEY | ≤ 0.2
VLTE | ≤ 0.2
PHHS | ≤ 0.2
PHAS | ≤ 0.2
EPCT | ≤ 0.2
PQWP | ≤ 0.2
GIHT | ≤ 0.2
KFWS | ≤ 0.2
QEGP | ≤ 0.2
QRGN | ≤ 0.2
HPHA | ≤ 0.2
RYAS | 0.917
YSAV | ≤ 0.2
DTLP | ≤ 0.2
TIHW | ≤ 0.2

Variant | one-hybrid fitness for binding parS DNA
GLHY | ≤ 0.2
KTTR | ≤ 0.2
YNTS | ≤ 0.2
ERYF | ≤ 0.2
LSST | ≤ 0.2
LATS | ≤ 0.2
GCTF | ≤ 0.2
NKST | ≤ 0.2
REHK | ≤ 0.2
RFYF | ≤ 0.2
CAEL | ≤ 0.2
WRTF | ≤ 0.2
VIAK | ≤ 0.2
PNMV | ≤ 0.2
ALHT | ≤ 0.2
ANWC | ≤ 0.2
FARA | ≤ 0.2
KTET | ≤ 0.2
CYRR | ≤ 0.2
DLMG | ≤ 0.2
RIQK | ≤ 0.2
YNRS | ≤ 0.2
RCEH | 0.244
RGPS | 0.336

Variant | one-hybrid fitness for binding parS DNA
RSNW | 0.218
FNTS | ≤ 0.2
HSLT | ≤ 0.2
RKPF | ≤ 0.2
WNTS | ≤ 0.2
LVYT | ≤ 0.2
QWDN | ≤ 0.2
ARIF | ≤ 0.2
TDSG | ≤ 0.2
DNKC | ≤ 0.2
RQWG | 0.877
DLHD | ≤ 0.2
PHRF | ≤ 0.2
QHSM | ≤ 0.2
ARFF | ≤ 0.2
DWNL | ≤ 0.2
VTFC | ≤ 0.2
VRHR | ≤ 0.2
MFPS | ≤ 0.2
VISF | ≤ 0.2
WRPY | ≤ 0.2
INAC | ≤ 0.2
ILAH | ≤ 0.2
CAHR | ≤ 0.2

Variant | one-hybrid fitness for binding parS DNA
PGWW | ≤ 0.2
FKLE | ≤ 0.2
EIIT | ≤ 0.2
VRQL | ≤ 0.2
FVLH | ≤ 0.2
WRKI | ≤ 0.2
GPRM | ≤ 0.2
IVVY | ≤ 0.2
FQCC | ≤ 0.2
PDAR | ≤ 0.2
DFLF | ≤ 0.2
YWAY | ≤ 0.2
RITK | ≤ 0.2
AMQR | ≤ 0.2
LSGL | ≤ 0.2
CPKT | ≤ 0.2
EGLH | ≤ 0.2
EVVE | 0.204
RWIC | 0.521
NVES | ≤ 0.2
QHGS | ≤ 0.2
DNRG | ≤ 0.2
WPSS | ≤ 0.2
SCRV | ≤ 0.2

Variant | one-hybrid fitness for binding parS DNA
AQRL | ≤ 0.2
LGAN | ≤ 0.2
QFDF | ≤ 0.2
ACVC | ≤ 0.2
QKNL | ≤ 0.2
PTYI | ≤ 0.2
PNYG | ≤ 0.2
RKGF | ≤ 0.2
TGQL | ≤ 0.2
SNRI | ≤ 0.2
PYPV | ≤ 0.2
VARS | ≤ 0.2
YVRC | ≤ 0.2
YWAR | ≤ 0.2
HNRC | ≤ 0.2
AILS | ≤ 0.2
RVNT | 0.899
EGRG | ≤ 0.2
APTC | ≤ 0.2
GIQR | ≤ 0.2
DRMC | ≤ 0.2
EPPI | ≤ 0.2
DFTA | ≤ 0.2
YDHG | ≤ 0.2

Variant | one-hybrid fitness for binding parS DNA
LLVV | ≤ 0.2
RIKW | 0.326
RQEE | ≤ 0.2
AGRS | ≤ 0.2
AMKT | ≤ 0.2
CHTS | ≤ 0.2
INSG | ≤ 0.2
RKFH | 0.211
SVRA | ≤ 0.2
VRRN | ≤ 0.2
SAGM | ≤ 0.2
VLID | ≤ 0.2
AITS | ≤ 0.2
RRDF | ≤ 0.2
TELL | ≤ 0.2
VQAR | ≤ 0.2
RGSC | 0.672
SNDF | ≤ 0.2
ESPR | ≤ 0.2
QYTW | ≤ 0.2
IRYS | ≤ 0.2
YNVW | ≤ 0.2
DTMS | ≤ 0.2
SFMY | ≤ 0.2

Variant | one-hybrid fitness for binding parS DNA
VNQD | ≤ 0.2
YHNG | ≤ 0.2
SLNI | ≤ 0.2
QAHY | ≤ 0.2
THDR | ≤ 0.2
VIEG | ≤ 0.2
GHHR | ≤ 0.2
DKIG | ≤ 0.2
APYS | ≤ 0.2
KRNI | ≤ 0.2
CCPT | ≤ 0.2
RWGR | ≤ 0.2
QSGV | ≤ 0.2
FTVR | ≤ 0.2
TRCL | ≤ 0.2
SYVM | ≤ 0.2
HRWT | ≤ 0.2
GNTM | ≤ 0.2
